Some of the results follow.

In this assay the test system is T1, C. trachomatis L2/434/Bu expressing GFP (CTL2-GFP).
T1 construct: L2/434/Bu GFP intracellular growth in HeLa cells
On the set-up: species or system HeLa; C. trachomatis total inclusion area by high-content imaging, normalised to DMSO. To be noted: total inclusion area; 28.5 h, 10 µM; inhibitor. The method, boiled down:
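Host cell viability was gauged from Hoechst-stained nuclei counts, while chlamydial growth was taken from total inclusion area and inclusion number per well. Cells were fixed and imaged by high-content microscopy once bulk GFP and resorufin fluorescence had been measured.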
For the molecule `COCCNC(=O)c1cnc2ccc(OC)cc2c1O` [CBK159999], the “% of control remaining” value is reported as 89.1326.
The figure for `CN(C)CCCn1nc2n(c1=O)-c1ccccc1SC(c1ccccc1)C2` (centres unmarked) [CBK016063] is 91.3259; for `O=C(NC(=S)Nc1ccc2oc(-c3ccncc3)nc2c1)c1cc(Br)ccc1Cl` [CBK264343] it is 101.491.
The figure for `FC(F)(F)c1ccnc(OCCCc2ccncc2)n1` [CBK115799] is 100.079.
The figure for `O=S(=O)(c1ccc(Cl)cc1)N1CCN(S(=O)(=O)N2CCCCC2)CC1` [CBK267075] is 105.953.
Turning to `CN(C)C(C(=O)NCC1(C)COC1)c1ccc(Cl)cc1` (centres unmarked) [CBK281753], the “% of control remaining” value turned out to be 76.2014.
As for `COc1ccc(NC(=O)N[C@H]2CO[C@H]3[C@@H]2OC[C@@H]3n2cc(-c3ccccc3)nn2)cc1` [CBK289506], the “% of control remaining” value was determined as 115.163.
The figure for `CN(Cc1ccc(Cl)c(F)c1)C(=O)c1cn[nH]c1C1CCCCN1` (centres unmarked) [CBK304742] is 52.7235; for `CCC(CC(=O)NC1CCCOC1)c1c[nH]c2ccccc12` (centres unmarked) [CBK282521] it is 135.448.
The figure for `CCOc1ccc(NC(=O)Cn2c3c(c(-c4ccccc4)cc2=O)CCCC3)cc1` [CBK294457] is 95.2254; for `O=C1NCCNC(=O)C2(C/C=C/COc3ccccc31)CCCN(C(=O)c1cnco1)C2` (centres unmarked) [CBK291993] it is 101.547; for `CC(C)c1ccc(OCC(=O)NNC(=O)c2ccco2)c(Br)c1` [CBK267224] it is 101.372.
As for `CC(C)CNC(=O)N1CCNC(=O)C1` [CBK155864], the figure is 96.8483; as for `Cn1ccnc1Sc1cc(C(F)(F)F)ccn1` [CBK093798], 85.1221; as for `COc1ccc(-c2cc(-c3c(O)ccc4c(C)cc(=O)oc34)nc(N)n2)cc1OC` [CBK074619], 130.561.
As to `CCN(CC1CCOC1)C(=O)c1cn2ccccc2n1` (centres unmarked) [CBK305653], the “% of control remaining” value is reported as 74.4762.
As for `Cn1nc(C2CCN(C(=O)Cc3ccsc3)CC2)c2cccnc21` [CBK284986], the figure is 82.0761; as for `Fc1ccc(C2NC(S)=NC3=C2N2CCC3CC2)cc1` (centres unmarked) [CBK288390], 65.3756; as for `Cc1nccnc1N1CCC2(CCCN(CC3CCC3)C2=O)C1` (centres unmarked) [CBK306806], 38.9265.
Regarding `COc1cccc(/C=N/N2C(=O)c3ccc([N+](=O)[O-])cc3NC2c2cccc(OC)c2O)c1O` (centres unmarked) [CBK074439], the “% of control remaining” value is 74.7668.
Take `CN1CCN(C(=O)c2cnc3cc(C(F)(F)F)ccc3c2O)CC1` [CBK107423]: the “% of control remaining” value stood at 95.6424.
The figure for `CCCc1nnc2sc(C3CCCN(C(C)C)C3)nn12` (centres unmarked) [CBK306781] is 83.0619.
As to `Cn1ccnc1CNC(=O)N1CCCC(C(=O)c2cccc(Cl)c2)C1` (centres unmarked) [CBK307479], the “% of control remaining” value came out at 29.8921.
As for `CCC(C)(C)c1ccc(S(=O)(=O)N2CCCN(Cc3c[nH]c(=O)[nH]c3=O)CC2)cc1` [CBK062881], the figure is 109.412; as for `CC(NC(=O)C1CCN(CCc2ccccc2)CC1)c1ccccc1` (centres unmarked) [CBK148612], 105.625; as for `Cc1ccnn1CCC(=O)N1CCC(c2cc3cccnc3[nH]2)CC1` [CBK284912], 109.03.
Take `N#C/C(=C(/O)c1ccc(-c2ccc([N+](=O)[O-])cc2Cl)o1)c1nc(-c2ccc(F)cc2)cs1` [CBK266742]: the “% of control remaining” value came to 126.505.
As for `CS(=O)(=O)c1ccc(-c2cnc(N)c(NCCCO)n2)cc1` [CBK063587], the figure is 161.752.
As for `O=C(NCCn1nc(-c2ccco2)ccc1=O)c1cccs1` [CBK283704], the figure is 97.3371; as for `O=C(Nc1ncccc1O)c1c(O)c2ccccc2n(Cc2ccccc2)c1=O` [CBK291211], 94.4376.
In the case of `CC(C)C(=O)N1CCCC(c2cc3cccnc3[nH]2)C1` (centres unmarked) [CBK284994], the “% of control remaining” value came out at 86.8637.
In the case of `COc1ccc(-c2ccc3c(c2)OC2(CCN(C(=O)c4cc(OC)c(C)c(OC)c4)CC2)CC3=O)cn1` [CBK169424], the “% of control remaining” value is given as 93.2769.
As for `COc1ccc(C(=O)N2CCC3(CCCN(C(=O)c4ccco4)C3)C2)cc1OC` (centres unmarked) [CBK131647], the figure is 68.1943; as for `COc1cccc(NC(=O)N2CCC3(CC2)NC(=O)c2cc(-c4ccoc4)ccc2O3)c1` [CBK115855], 97.0169.
As for `Cc1cc(N2CCN(C(=O)CCc3ccccc3)CC2)nc(C(C)C)n1` [CBK305711], the figure is 88.5086.
Take `CCCC(=O)NC(c1ccccn1)C1CCC(CNC(C)=O)CC1` (centres unmarked) [CBK283080]: the “% of control remaining” value worked out at 86.5786.
On to `CCC1CCCCN1C(=O)c1ccc(-c2ccccc2)s1` (centres unmarked) [CBK074215], for which the “% of control remaining” value turned out to be 106.055.
The figure for `COc1ccccc1CC(c1ccccc1)C1CN(C)CCO1` (centres unmarked) [CBK009925C] is 62.7661; for `O=C(Nc1cccc(Cl)c1)Nc1ccc(C(=O)O)c(O)c1` [CBK269518] it is 100.259.
As for `O=C(Cc1ccc(Cl)c(Cl)c1)N1CCCC2(CCN(C(=O)c3ccoc3)C2)C1` (centres unmarked) [CBK131619], the figure is 93.5736; as for `N#Cc1ccccc1N1CCN(c2ccc(-c3ccccc3)cn2)CC1` [CBK037590], 87.338; as for `CC(=O)Nc1ccc2nc(Nc3nc4c(F)cccc4s3)sc2c1` [CBK287475], 173.876.
On to `c1ccc(-c2cn3ccnc3c(N3CCN(c4ccncc4)CC3)n2)cc1` [CBK066177], for which the “% of control remaining” value is 111.181.
As for `CCN(C)CC(=O)N1CCC(Oc2cc(C)ccc2F)(C(=O)O)CC1` [CBK307020], the figure is 57.1241.
As for `Cc1cc(C(=O)O)ccc1-c1ccc(/C=C/c2[nH]c(=O)[nH]c(=O)c2[N+](=O)[O-])o1` [CBK266998], the figure is 117.611; as for `Cc1ccc(S(=O)(=O)NCC(=O)O)cc1[N+](=O)[O-]` [CBK034459], 100.141.
As to `COc1cc(NS(=O)(=O)c2ccccc2)c(Cl)cc1C(=O)O` [CBK286564], the “% of control remaining” value is recorded as 80.3869.
Consider `CC(=O)N1CC(C(=O)Nc2nc3c(C)cc(C)cc3s2)C1` [CBK281372], for which the “% of control remaining” value is on record as 113.429.
On to `C=CCSc1nc2ccccc2c(=O)n1CCc1ccccc1` [CBK055285], for which the “% of control remaining” value was 90.0254.
The figure for `COc1ccccc1NC(=O)CSc1nc(O)c2c(C)cc(C)nc2n1` [CBK266095] is 100.986.
The figure for `CC(=O)Nc1cccc(NC(=O)CN(CCO)C2CCCCC2)c1` [CBK304239] is 77.1394; for `CC1CCN(C(=O)CCn2c(C(F)F)cc3cccnc32)CC1` [CBK284982] it is 96.7999; for `Cc1ccc(SCCC(=O)NC(CC(=O)O)C(=O)O)cc1` (centres unmarked) [CBK295174] it is 108.109.
With `CCOC(=O)c1ccc(NC(=O)Cc2c(C(=O)O)nnn2-c2cccc(C(F)(F)F)c2)cc1` [CBK296932], the “% of control remaining” value worked out at 89.7229.
As for `O=C(O)CCNS(=O)(=O)c1cccc(F)c1` [CBK267264], the figure is 92.8684; as for `CC(C)c1n[nH]c(=S)n1C1CCc2ccccc21` (centres unmarked) [CBK288374], 36.8127; as for `CS(=O)(=O)Nc1ccc(C(=O)NCCN2CCOCC2)cc1` [CBK269781], 84.5724.
The figure for `CCOc1ncccc1C(=O)NCc1ccc(COCC(F)(F)F)cc1` [CBK304526] is 28.1263.
Take `CCN(CC(=O)N1CCN(C)CC1)S(=O)(=O)c1cc(Cl)ccc1Cl` [CBK269297]: the “% of control remaining” value was 69.4539.
The figure for `O=C(CN1CCC(Cc2ccccc2)CC1)Nc1ccc(F)c(Cl)c1` [CBK126387] is 103.787; for `CCCC/C=C/c1cn2ccnc2c(N2CCOCC2)n1` [CBK038031] it is 138.008; for `c1ccc(CN2CCN(c3nccnc3OCc3cccnc3)CC2)cc1` [CBK083129T] it is 96.171.
As for `C#CCOc1cccc2oc(CCC)cc(=O)c12` [CBK005628], the figure is 45.1922; as for `CN1CCC2(CCC1=O)CC(N)c1ccccc1O2` (centres unmarked) [CBK284456], 56.6392; as for `COc1ccccc1N1CCN(c2ccc([N+](=O)[O-])cc2C(=O)O)CC1` [CBK286692], 49.4513.
The figure for `O=S1(=O)CCN(CC2COc3ccccc3O2)CC1` (centres unmarked) [CBK074789] is 110.453; for `COc1ccc(Cl)cc1NC(=O)CN(c1ccccc1)S(=O)(=O)c1ccc(Cl)cc1` [CBK265261] it is 96.6662; for `O=C(c1cncnc1)N1CCC2(CCN(C(=O)c3ccoc3)C2)C1` (centres unmarked) [CBK131755] it is 54.7316.
On to `OCCc1ccc(Nc2cc(-c3cc4ccccc4s3)ncn2)cc1` [CBK090770], for which the “% of control remaining” value is listed as 79.7497.
As for `O=C(NCCOc1ccccc1Cc1ccccc1)c1cncc(Br)c1` [CBK266581], the figure is 106.598; as for `O=C1NCCN1c1cccc(Cl)c1` [CBK016915], 72.1131; as for `CCN(CC)CCN(Cc1cc2ccc(C)cc2[nH]c1=O)C(=O)Nc1ccc(Cl)cc1` [CBK068680], 92.3627.
As for `O=C(Cc1c[nH]c2ccccc12)N1CCC2(CCCN(C(=O)c3cccc(C(F)(F)F)c3)C2)C1` (centres unmarked) [CBK131578], the figure is 114.694.
As for `O=C1CCC(=O)N1CCOc1nccnc1N1CCN(CCc2ccc3ccccc3c2)CC1` [CBK084307], the figure is 100.456; as for `Cc1ccc(C2CCCN2C(=O)c2ccc(=O)n(CC(=O)N(C)c3ccccc3)c2)cc1C` (centres unmarked) [CBK285653], 103.318.
In the case of `COc1ccc2c(c1)c(C(=O)N1CC(C)(C)C(C)(O)C1)c(C)n2C` (centres unmarked) [CBK306896], the “% of control remaining” value worked out at 77.8614.
As for `COc1cc(/C=N/NC(=O)CCN2CCN(C)CC2)cc2c1OCO2` [CBK261504], the figure is 97.436; as for `O=C(O)c1cccc(-c2cn3ccnc3c(N3CCOCC3)n2)c1` [CBK038053], 134.119; as for `COc1ccc(S(=O)(=O)N(CC(=O)Nc2ccc3c(c2)OCCO3)c2ccc(F)cc2)cc1` [CBK268584], 101.269.
As for `O[C@H]1CN[C@H](c2nc(-c3ccc(OC(F)(F)F)cc3)no2)C1` [CBK288836], the figure is 107.717.

The values are drawn from PMC12040169 (PLOS Biology, 2025).
